Measurements taken from PubChem BioAssay (NCATS).
This list was built around the results that the source calls inconclusive (neither active nor inactive); the mix of calls is not that of the screen. For some of these results: Potencies of inconclusive entries are doubtful fits and often do not repeat. Calls of active or inactive are those of the source. Calls come from the whole dose curve; as a rule, active = well fitted curve in the direction sought with a large enough effect; inconclusive = small, poorly fitted or top-dose-only effect, or another doubt; inactive = no such curve, though single readings can be large; an effect the other way counts as inactive or inconclusive.

Tests used:
[1] = Primary qHTS for inhibitors of nuclear receptor binding SET domain protein 2 (NSD2) in an isogenic RCH-ACV NSD2 p.E1099K mutant (9B) (AID 1645876); note: nearly all actives have a fitted effect of over 70% in size; note: potency is the fitted concentration of half-maximal effect
[2] = Primary qHTS for inhibitors of nuclear receptor binding SET domain protein 2 (NSD2) in an RCH-ACV wild type WT cells (2C) (AID 1645877); note: nearly all actives have a fitted effect of over 70% in size; note: potency is the fitted concentration of half-maximal effect
[3] = target: Phospholipid hydroperoxide glutathione peroxidase GPX4 (Homo sapiens) (UniProt P36969); test: Primary qHTS Assay for Inhibitors of Recombinant Selenoprotein Glutathione Peroxidase 4 (GPX4) (AID 1845192); note: nearly all actives have a fitted effect of over 65% in size; note: potency is the fitted concentration of half-maximal effect
Sequence of UniProt P36969 (P36969 whole entry, looked up): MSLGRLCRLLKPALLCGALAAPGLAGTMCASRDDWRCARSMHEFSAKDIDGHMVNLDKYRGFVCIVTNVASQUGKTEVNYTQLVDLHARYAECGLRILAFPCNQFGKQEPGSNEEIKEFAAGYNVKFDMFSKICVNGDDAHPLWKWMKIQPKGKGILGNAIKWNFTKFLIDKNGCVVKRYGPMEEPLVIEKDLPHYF
How it was run: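 GR-coupled assay: recombinant GPX4 preincubated 30 min with compound at room temperature; final 200 nM GPX4, 1 mM GSH, 0.5 mM cumene hydroperoxide, 0.5 mM NADPH, 100 nM GR, 0.01% BSA, pH 7.5 Tris. NADPH fluorescence (340/450 nm) read at 0 and 15 min.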

[4] = target: Glutathione peroxidase 1 (Homo sapiens) (UniProt P07203); test: Primary qHTS Assay for Inhibitors of Recombinant Selenoprotein Glutathione Peroxidase 1 (GPX1) (AID 1845191); note: nearly all actives have a fitted effect of over 65% in size
Sequence of UniProt P07203 (P07203 whole entry, looked up): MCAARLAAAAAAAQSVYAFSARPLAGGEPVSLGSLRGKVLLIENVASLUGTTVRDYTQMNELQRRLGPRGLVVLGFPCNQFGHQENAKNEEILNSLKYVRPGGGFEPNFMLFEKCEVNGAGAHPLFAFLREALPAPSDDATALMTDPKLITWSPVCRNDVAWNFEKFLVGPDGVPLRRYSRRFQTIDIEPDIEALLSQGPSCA
How it was run: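 GR-coupled assay: compounds preincubated 30 min at room temperature with GPX1, then reaction started with CHP; final 10 nM GPX1, 1 mM GSH, 0.5 mM CHP, 0.5 mM NADPH, 100 nM GR, 0.01% BSA, pH 7.5 Tris buffer. NADPH fluorescence (340/450 nm) read at 0 and 15 min.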

[5] = target: DNA repair nuclease/redox regulator APEX1 (Homo sapiens) (UniProt P27695); test: Confirmation qHTS Assay for Inhibitors of the Human Apurinic/apyrimidinic Endonuclease 1 (APE1) (AID 2572); note: potency is the fitted concentration of half-maximal effect; nearly all actives have a fitted effect of over 30% in size
Sequence of UniProt P27695 (P27695 whole entry, looked up): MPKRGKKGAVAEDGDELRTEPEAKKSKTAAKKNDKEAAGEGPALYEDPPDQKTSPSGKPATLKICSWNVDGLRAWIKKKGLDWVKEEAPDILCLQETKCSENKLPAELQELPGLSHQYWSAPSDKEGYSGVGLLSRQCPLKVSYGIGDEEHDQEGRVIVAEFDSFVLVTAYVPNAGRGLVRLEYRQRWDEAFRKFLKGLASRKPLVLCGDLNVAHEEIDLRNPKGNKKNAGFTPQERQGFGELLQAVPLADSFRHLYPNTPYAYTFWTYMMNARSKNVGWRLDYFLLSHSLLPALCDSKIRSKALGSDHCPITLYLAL
How it was run: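 Readout: kinetic fluorescence (Ex 525, Em 598 nm) from APE1 incision of a 5'-TAMRA, 3'-BHQ-2 duplex containing a THF abasic site at 50 nM final. Compound preincubation 15 min, room temperature.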

[6] = target: DNA repair nuclease/redox regulator APEX1 (Homo sapiens) (UniProt P27695); test: qHTS FP-Based Assay for Inhibitors of the Human Apurinic/apyrimidinic Endonuclease 1 (APE1) (AID 2573); note: potency is the fitted concentration of half-maximal effect
[7] = target: Tyrosyl-DNA phosphodiesterase 1 (Homo sapiens) (UniProt Q9NUW8); test: Confirmation Assay for Inhibitors of Tyrosyl-DNA Phosphodiesterase (TDP1) (AID 489007); conditions: recombinant human TDP1 enzymatic activity, dose-response; note: potency is the fitted concentration of half-maximal effect; nearly all actives have a fitted effect of over 40% in size
Sequence of UniProt Q9NUW8 (Q9NUW8 whole entry, looked up): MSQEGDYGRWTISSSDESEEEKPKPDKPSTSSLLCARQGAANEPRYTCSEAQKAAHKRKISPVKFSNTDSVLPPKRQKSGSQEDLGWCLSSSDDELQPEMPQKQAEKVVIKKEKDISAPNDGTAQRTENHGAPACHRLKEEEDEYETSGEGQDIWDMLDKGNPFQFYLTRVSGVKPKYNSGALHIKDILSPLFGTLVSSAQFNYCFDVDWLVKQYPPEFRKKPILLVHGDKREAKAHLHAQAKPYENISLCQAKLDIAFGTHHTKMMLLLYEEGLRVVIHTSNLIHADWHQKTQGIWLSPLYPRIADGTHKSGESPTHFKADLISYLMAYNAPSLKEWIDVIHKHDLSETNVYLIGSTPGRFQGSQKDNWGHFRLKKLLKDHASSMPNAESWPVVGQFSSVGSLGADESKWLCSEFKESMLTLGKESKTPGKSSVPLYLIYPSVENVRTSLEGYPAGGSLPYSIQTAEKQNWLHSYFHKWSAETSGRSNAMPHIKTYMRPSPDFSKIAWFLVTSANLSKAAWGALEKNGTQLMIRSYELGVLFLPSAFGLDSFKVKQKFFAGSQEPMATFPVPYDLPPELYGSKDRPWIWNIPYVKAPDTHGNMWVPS
How it was run: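 Confirmation of primary-screen follow-ups in a qHTS format. Substrate cleavage by Tdp1 (1 nM) of a 3'-phosphotyrosine-FITC, 5'-biotin oligo (15 nM) was monitored as decreased AlphaScreen signal after a 5 min room-temperature reaction.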

[8] = Primary fluorescence-based thiol-reactive (MSTI) qHTS assay for identification of artifact compounds. (AID 1845221);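 note: potency is the fitted concentration of half-maximal effect; thiol-reactive compounds lower the probe fluorescence signal; nearly all actives have a fitted effect of over 65% in size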
How it was run: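 Reactivity toward the thiol probe MSTI (4 uM) is scored by fluorescence at Ex/Em 525/598 nm after 1 h at room temperature. Acetyl-MSTI and MSTI define the activity scale.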
Tags give direction and shape of the fitted curve.

Structure (SMILES): OC1CCC([C@H](O)C[C@H]2c3c(F)cccc3-c3cncn32)CC1 (some centres undefined)
- Potency [1]: inactive
- Potency [2]: inactive

Structure (SMILES): CC1CN(CC(=O)Nc2ccc3c(c2)Cc2cccc(-c4cc(=O)cc(N5CCOCC5)o4)c2S3)CC(C)O1 (centres undefined)
- Potency [1]: inconclusive: 8.2 µM [inhibitor, partial curve]
- Potency [2]: inconclusive: 10.3 µM [inhibitor, partial curve]

Structure (SMILES): CO[C@H]1/C=C/O[C@@]2(C)Oc3c(C)c(O)c4c(O)c(c5c(c4c3C2=O)=NC2(CCN(CC(C)C)CC2)N=5)NC(=O)/C(C)=C/C=C/[C@H](C)[C@H](O)[C@@H](C)[C@@H](O)[C@@H](C)[C@H](OC(C)=O)[C@@H]1C
- Potency [1]: inconclusive: 26.3 µM [inhibitor, partial curve, poor fit]
- Potency [2]: inconclusive: 14.8 µM [inhibitor, partial curve]
- Potency [3]: inconclusive: 32.1 µM [inhibitor, single point]

Structure (SMILES): OCCn1cc(-c2ccc3c(c2)CC/C3=N\O)c(-c2ccncc2)n1
- Potency [1]: inconclusive: 33.2 µM [inhibitor, partial curve, poor fit]
- Potency [2]: inconclusive: 20.9 µM [inhibitor, single point]

Structure (SMILES): C[C@]1(C(=O)Nc2ccc(F)nc2)CCCN1c1nc(Nc2cc(C3CC3)[nH]n2)c2cccn2n1
- Potency [1]: active: 1.84 µM
- Potency [2]: active: 0.92 µM

Structure (SMILES): CC(=O)[C@]1(N)Cc2c(O)c3c(c(O)c2[C@@H](O[C@H]2C[C@H](O)[C@H](O)CO2)C1)C(=O)c1ccccc1C3=O
- Potency [1]: inconclusive: 26.3 µM [inhibitor, single point]
- Potency [2]: active: 23.5 µM

Structure (SMILES): CN[C@@H](C)C(=O)N[C@@H]1C(=O)N(Cc2c(C)ccc3ccccc23)c2ccc(C#N)cc2N(C(C)=O)[C@H]1C
- Potency [1]: inconclusive: 23.5 µM [inhibitor, partial curve, poor fit]
- Potency [2]: inconclusive: 23.5 µM [inhibitor, single point]

Structure (SMILES): CC(C)OC(=O)OCOP(=O)(COC(C)Cn1cnc2c(N)ncnc21)OCOC(=O)OC(C)C (centres undefined)
- Potency [1]: inconclusive: 29.1 µM [inhibitor, single point]
- Potency [2]: inactive

Structure (SMILES): CN(C(=O)CNC(=O)/C=C/c1cccc(Cl)c1)C1CCS(=O)(=O)CC1
- Potency [1]: inconclusive: 1.66 µM [inhibitor, full curve]
- Potency [2]: inconclusive: 0.934 µM [inhibitor, partial curve]

Structure (SMILES): COc1cccc2c1CCC[C@H]2CN(C)CCc1ccc2ccoc2c1
- Potency [1]: inconclusive: 25.8 µM [inhibitor, single point]
- Potency [2]: inconclusive: 20.5 µM [inhibitor, single point]

Structure (SMILES): CC(C)(c1ccc(OCC(O)CO)cc1)c1ccc(OCC(O)CCl)cc1 (centres undefined)
- Potency [1]: inconclusive: 23.5 µM [inhibitor, partial curve, poor fit]
- Potency [2]: inconclusive: 37.2 µM [inhibitor, single point]
- Potency [4]: inactive

Structure (SMILES): COc1cc(-c2cn(C)c(=O)c3cnccc23)cc(OC)c1CN(C)C
- Potency [1]: inconclusive: 16.6 µM [inhibitor, partial curve, poor fit]
- Potency [2]: inconclusive: 18.6 µM [inhibitor, partial curve]

Structure (SMILES): Nc1nc(OC(c2ccc(-c3cccc(F)c3)cc2)C(F)(F)F)cc(-c2ccc(C[C@H](N)C(=O)O)cc2)n1 (some centres undefined)
- Potency [1]: inconclusive: 37.2 µM [inhibitor, single point]
- Potency [2]: inconclusive: 26.3 µM [inhibitor, single point]

Structure (SMILES): N[C@@H]1CN(c2c(F)cc3c(=O)c(C(=O)O)cn([C@@H]4C[C@@H]4F)c3c2Cl)CC12CC2
- Potency [1]: inconclusive: 13.2 µM [inhibitor, partial curve, poor fit]
- Potency [2]: inactive
- Potency [3]: inconclusive: 10.1 µM [inhibitor, partial curve, poor fit]

Structure (SMILES): C=CC(=O)Nc1cc(N2CCN(CC)CC2)ccc1Nc1cc(N(C)C(=O)Nc2c(Cl)c(OC)cc(OC)c2Cl)ncn1
- Potency [1]: inconclusive: 14.8 µM [inhibitor, partial curve]
- Potency [2]: inconclusive: 37.2 µM [inhibitor, single point]
- Potency [4]: inactive

Structure (SMILES): CNCCCOc1cc(F)c(-c2c(Cl)nc3ncnn3c2N[C@@H](C)C(F)(F)F)c(F)c1
- Potency [1]: active: 0.0661 µM
- Potency [3]: inactive

Structure (SMILES): O=C(O)c1ccccc1-c1ccc(/C=c2\sc3nc4cc(Br)cnc4n3c2=O)o1
- Potency [5]: active: 8.91 µM
- Potency [6]: inconclusive: 17.8 µM [inhibitor, partial curve, poor fit]
- Potency [7]: inconclusive: 7.94 µM [inhibitor, full curve]
- Potency [1]: inactive
- Potency [3]: inconclusive: 8.81 µM [inhibitor, single point]

Structure (SMILES): C/C=C/C=C/C(O)=C1/C(=O)[C@]2(C)C3/C(=C(O)/C=C/C=C/C)C(=O)C4(C)C1[C@]1(C)O[C@@]4(O)[C@@]3(C)O[C@@]12O
- Potency [1]: inactive
- Potency [2]: inconclusive: 14.2 µM [inhibitor, single point]
- Potency [8]: inconclusive: 4.62 µM [inhibitor, partial curve]

Structure (SMILES): COc1cc([C@@H]2c3cc4c(cc3[C@@H](O[C@@H]3O[C@@H]5CO[C@@H](c6cccs6)O[C@H]5[C@H](O)[C@H]3O)[C@H]3COC(=O)[C@H]23)OCO4)cc(OC)c1O
- Potency [1]: active: 0.0332 µM
- Potency [3]: inactive

Structure (SMILES): COC(=O)N(CC(=O)O)Cc1cccc(OCc2nc(-c3ccc(Cl)cc3)oc2C)c1
- Potency [1]: inconclusive: 18.6 µM [inhibitor, partial curve]
- Potency [2]: inconclusive: 37.2 µM [inhibitor, single point]
- Potency [3]: inconclusive: 18 µM [inhibitor, single point]
